{"source": "paper PMC4336329", "about": "(PLoS ONE, 2015)", "note": "Among all 310,000 compounds or so, about 14,000 (4.5%) showed an effect of 50% or more. The effect is printed as a negative number. The list shows a part of the results.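 Also: peak tail current of the secondary pulse compared with the same well before compound.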", "data": [{"molecular_target": "human ether-à-go-go-related gene (hERG) potassium channel (human, UniProt Q12809)", "sequence (Q12809 whole entry, looked up)": "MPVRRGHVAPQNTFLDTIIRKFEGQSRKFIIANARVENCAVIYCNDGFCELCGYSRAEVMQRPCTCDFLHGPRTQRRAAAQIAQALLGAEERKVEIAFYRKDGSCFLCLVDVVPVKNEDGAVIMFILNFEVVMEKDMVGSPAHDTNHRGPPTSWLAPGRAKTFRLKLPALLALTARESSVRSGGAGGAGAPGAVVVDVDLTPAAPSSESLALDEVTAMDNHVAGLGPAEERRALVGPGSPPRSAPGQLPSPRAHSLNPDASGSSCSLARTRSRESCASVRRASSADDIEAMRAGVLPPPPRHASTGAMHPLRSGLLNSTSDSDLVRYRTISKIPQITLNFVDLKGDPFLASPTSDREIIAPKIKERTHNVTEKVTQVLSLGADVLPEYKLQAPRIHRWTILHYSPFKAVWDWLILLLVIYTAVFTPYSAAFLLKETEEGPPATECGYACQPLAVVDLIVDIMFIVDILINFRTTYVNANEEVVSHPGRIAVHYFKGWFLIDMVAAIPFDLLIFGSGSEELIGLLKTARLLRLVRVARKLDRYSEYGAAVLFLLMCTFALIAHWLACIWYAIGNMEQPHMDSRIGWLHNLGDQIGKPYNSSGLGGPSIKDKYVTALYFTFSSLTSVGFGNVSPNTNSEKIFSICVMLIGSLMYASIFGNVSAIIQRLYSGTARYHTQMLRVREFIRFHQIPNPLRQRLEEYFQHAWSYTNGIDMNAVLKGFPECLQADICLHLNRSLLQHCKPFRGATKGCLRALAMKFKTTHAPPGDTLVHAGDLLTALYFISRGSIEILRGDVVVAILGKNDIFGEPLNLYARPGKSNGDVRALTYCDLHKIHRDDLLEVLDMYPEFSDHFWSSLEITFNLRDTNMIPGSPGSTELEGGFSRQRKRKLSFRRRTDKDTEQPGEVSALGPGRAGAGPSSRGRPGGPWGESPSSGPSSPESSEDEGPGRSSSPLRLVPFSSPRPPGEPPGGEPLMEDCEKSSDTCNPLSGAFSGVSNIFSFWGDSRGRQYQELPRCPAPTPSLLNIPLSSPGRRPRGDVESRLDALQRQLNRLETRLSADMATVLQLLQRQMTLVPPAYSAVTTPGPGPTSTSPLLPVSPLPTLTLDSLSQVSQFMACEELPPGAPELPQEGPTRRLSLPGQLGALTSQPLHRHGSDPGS", "experiment": "primary screen, population patch clamp on CHO cells stably expressing hERG", "units": {"hERG current change (%, negative = inhibition) at 10uM": "%"}, "values": [{"smiles": "O=c1nc(SCc2ccc(Cl)cc2)nc(-c2ccccc2)[nH]1", "hERG current change (%, negative = inhibition) at 10uM": 17}, {"smiles": "COc1ccccc1C(=O)NCC(=O)NNc1ncnc(N)c1[N+](=O)[O-]", "hERG current change (%, negative = inhibition) at 10uM": 14.1}, {"smiles": "CCC(C)NC(=S)NNC(=O)c1ccncc1", "note": "(stereo not drawn)", "hERG current change (%, negative = inhibition) at 10uM": 13.9}, {"smiles": "Cc1nnc2ccc(-c3cccc(NC(=O)c4ccco4)c3)nn12", "hERG current change (%, negative = inhibition) at 10uM": -5.08}, {"smiles": "Cc1ccc(-c2nnc(-n3nc(C)cc3C)c3ccccc23)cc1", "hERG current change (%, negative = inhibition) at 10uM": 2.08}, {"smiles": "COc1cc2c(cc1OC)C(=O)N(C)CC2", "hERG current change (%, negative = inhibition) at 10uM": 6}, {"smiles": "COc1ccccc1N1CCN(C(=O)CCCCn2c(=O)[nH]c3ccsc3c2=O)CC1", "hERG current change (%, negative = inhibition) at 10uM": -18.2}, {"smiles": "O=C(O/N=C\\c1ccc(N2CCOCC2)c([N+](=O)[O-])c1)c1ccc(F)cc1", "hERG current change (%, negative = inhibition) at 10uM": -6.14}, {"smiles": "O=C(NC1CCCC1)C(c1ccccn1)N(C(=O)c1csnn1)C1CCCCC1", "note": "(stereo not drawn)", "hERG current change (%, negative = inhibition) at 10uM": -15.9}, {"smiles": "CC(C)(O)C(=O)N=Nc1c(O)[nH]c2ccccc12", "hERG current change (%, negative = inhibition) at 10uM": 19.7}, {"smiles": "CCN(C(=O)CSc1nnc(COc2cccc(C)c2)o1)c1nc(C)cs1", "hERG current change (%, negative = inhibition) at 10uM": -2.29}, {"smiles": "O=C(Nc1ccccc1N1CCOCC1)c1cccc(Oc2ccccc2)c1", "hERG current change (%, negative = inhibition) at 10uM": 3.95}, {"smiles": "CCOC(=O)NN=C1c2ccccc2-c2ccccc21", "hERG current change (%, negative = inhibition) at 10uM": -0.0609}, {"smiles": "Cc1cc(-n2c(C)cc(C(=O)CSc3[nH]c(=O)cc(C(F)(F)F)c3C#N)c2C)no1", "hERG current change (%, negative = inhibition) at 10uM": 8.81}, {"smiles": "Cc1ccccc1Nc1nc(N)nc(CCl)n1", "hERG current change (%, negative = inhibition) at 10uM": 10.5}, {"smiles": "Oc1ccc(/C=N/Nc2ccc3ccccc3c2)c(O)c1", "hERG current change (%, negative = inhibition) at 10uM": 3.59}, {"smiles": "C=CCNCCOc1ccc(C(C)(C)c2ccccc2)cc1.O=C(O)C(=O)O", "hERG current change (%, negative = inhibition) at 10uM": -5.93}, {"smiles": "COC(=O)c1c(NS(=O)(=O)Cc2ccccc2)sc2c1CCCC2", "hERG current change (%, negative = inhibition) at 10uM": 12.2}, {"smiles": "Cc1ccc(C(=O)N[C@H](C(=O)Nc2ccc(F)cc2)C(C)C)cc1", "hERG current change (%, negative = inhibition) at 10uM": 17.5}, {"smiles": "CC(C)NC(=S)N1CCCN(c2ncccc2[N+](=O)[O-])CC1", "hERG current change (%, negative = inhibition) at 10uM": 8.55}, {"smiles": "Cc1nonc1C1CCCN1C(=O)c1cc(COc2ccc(F)cc2Cl)on1", "note": "(stereo not drawn)", "hERG current change (%, negative = inhibition) at 10uM": 10.8}, {"smiles": "Cc1c(Br)c(=O)[nH]c(=O)n1COCc1ccccc1", "hERG current change (%, negative = inhibition) at 10uM": -5.85}, {"smiles": "CC1=CC(=O)OC2CC3OC4C[C@@H](C)C5OC6CC7O[C@]8(C)C/C=C\\C9OC%10CC%11OC(CC(C)CO)CC(O)[C@]%11(C)OC%10CC9OC8C[C@]7(C)O[C@]6(C)CCC5OC4C[C@]3(C)OC12", "note": "(stereo partly drawn)", "hERG current change (%, negative = inhibition) at 10uM": 9.17}, {"smiles": "CCN(CC)CCCNC(=O)/C=C/C(=O)O", "hERG current change (%, negative = inhibition) at 10uM": -1.15}]}]}
